Measured values reported in PubChem BioAssay AID1963576 (National Center for Advancing Translational Sciences (NCATS), 2024).
Screen size: about 46,000 compounds; about 60 (0.1%) were called active. About 3% were inconclusive and are not listed. The call rests on the fitted dose curve; in most records, active means well fitted inhibition curve with a large enough effect; inconclusive means small, poorly fitted or top-dose-only effect; inactive means no such curve, though single readings can be large or run the other way. The list shows a part of the results.

Assay: Primary qHTS assay for Inhibitors of ovarian cancer metastasis using an organotypic tumor microenvironment (TME) model. Further: nearly all actives have a fitted effect of over 65% in size.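 On activity change, negative = inhibition: plate controls were DMSO wells for no effect and tomatine positive control wells for full effect.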
Conditions: SKOV3ip1-GFP adhesion/invasion on 3D omental model, fluorescence; series mostly up to 45.8 µM; activity change, negative = inhibition: at the top concentration
Summary of the method: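 Primary human omental fibroblast/mesothelial 3D culture pre-formed 48 h. SKOV3ip1-GFP cells added with compounds (0.36-46 umol/L), incubated 2 h RT/16 h 37 C, fixed; GFP cells quantified at 488/509 nm.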

outcome, inactive:
Cn1cc(S(=O)(=O)N2CCCCCC2)cc1C(=O)Nc1ccccc1F, COc1cccc(-n2c(-c3ccco3)nc3c(cnn3-c3ccccc3C)c2=O)c1, COc1cc(NC(=O)Cn2nc(C(F)(F)F)c3c2CCCC3)cc(OC)c1OC, CCOc1ccccc1CNC(=O)CCCn1nc(C)c2sc3ccccc3c2c1=O, Cc1cccc(CSc2nc3ccncc3n2Cc2ccc(C(=O)O)cc2)c1, CCC1CN(C(=O)N2CCC(C(=O)NCCCc3ccccc3)CC2)c2ccccc2O1 (configuration not stated), COc1ccc(CNC(=O)c2ccc(CS(=O)(=O)c3ccc(OC)cc3)o2)cc1, CCOC(=O)c1c(C)[nH]c(CCC(=O)Nc2ccccc2OCC)c1C, CC(=O)Nc1ccccc1OCc1cc(=O)n2c(C)csc2n1, Cc1ccc(-c2nc(C)c(CCNC(=O)C(=O)Nc3ccc(C)c(Cl)c3)s2)cc1, COc1cccc(-c2nn(C)c3sc(C(=O)NCc4ccc(C)cc4)cc23)c1, CCC(CC)C(=O)Nc1cccc(-c2nc3ncccn3c2C)c1, CN1CCN(CCNC(=O)c2cnn(-c3cccc(Cl)c3)c2C2CCN(C(=O)OC(C)(C)C)CC2)CC1, Cc1cc(=O)n2nc(N3CCC(C(=O)NCc4ccccc4F)CC3)sc2n1, COc1ccc(CN(C)c2ccc(-c3nc(C)no3)cc2[N+](=O)[O-])cc1, COc1ccc(CNc2nc3c(-c4ccc(C)cc4)nnn3c3ccccc23)cc1, COc1ccc(-n2nc(C(=O)NCCCOC(C)C)c3c4ccccc4n(C)c3c2=O)cc1, O=C(Nc1c(Cl)cccc1Cl)c1cccc2c1C(=O)N(C1CCCCC1)C2, CCCS(=O)(=O)NCCc1csc2nc(-c3ccc(C)cc3)nn12, Cc1ccc(NC(=O)c2sc3nc4n(c(=O)c3c2C)CCCCC4)c(Br)c1, Cc1ccc(-n2ncc(C(=O)N3CCN(C4CCCCC4)CC3)c2C2CCN(C(=O)OC(C)(C)C)CC2)cc1C, CN(C(=O)Cn1c(=O)n(CCC(=O)NCc2ccc3c(c2)OCO3)c(=O)c2sccc21)c1ccccc1, O=C(Cn1cnc(S(=O)(=O)N2CCCC2)c1)Nc1cccc(F)c1

Activity change, negative = inhibition, inactive:
COc1ccc(-c2nc(Cn3c(SCc4cccc(F)c4)nc4cccnc43)c(C)o2)cc1 -2.05%, CC(C)c1ccc(C(=O)Nc2ccc(-c3nc4ccccc4s3)c(Cl)c2)cc1 0.707%, CCc1nc2ccccc2n1CCCCOc1ccc(Cl)cc1 -1.76%, COc1cc(NC(=O)Cn2nc(Cc3cccnc3)c3ccccc3c2=O)cc(OC)c1OC -2.19%, CCCCN(CCCC)S(=O)(=O)c1ccc(C(=O)Nc2sc3c(c2C(N)=O)CCN(CC)C3)cc1 8.24%, CC(NCCc1ccc(O)cc1)C(O)c1ccc(O)cc1 (configuration not stated) 7.44%, COc1ccc(N2CCN(c3oc(-c4ccccc4C)nc3S(=O)(=O)c3ccccc3)CC2)cc1 -7.34%, Cc1cccc(OCC(=O)Nc2c(C(=O)N3CCN(c4ccccc4)CC3)oc3ccccc23)c1 5.11%, COc1ccccc1NC(=O)Cn1c(=O)n(CCc2ccccc2)c(=O)c2sc3ccccc3c21 -1.54%, CC1=C(C(=O)Nc2cccc(Cl)c2)C2(CCCCCC2)OC1=O -11.5%, Cc1ccc(OCc2ccc(-c3nc(C#N)c(N4CCN(c5cccc(Cl)c5)CC4)o3)o2)cc1 -15.1%, O=C(Nc1ccc(-c2cn3cccnc3n2)cc1)c1ccccc1F -2.67%, CCCC12CN3CC(C)(CN(C1)C3c1cn(CC)c3ccccc13)C2=O (configuration not stated) 2.76%, CN(C)c1ccc(CNC(=O)Cn2c(=O)oc3cc(S(=O)(=O)NCc4ccccc4)ccc32)cc1 3.93%, COc1ccc(C(=O)Nc2cc3cc(Cl)ccc3oc2=O)cc1OC -16.2%, Cc1nn(CCC(=O)N2CCN(c3ccccc3F)CC2)c(C)c1S(=O)(=O)N1CCCC1 1.22%, O=C(NCc1ccccc1Cl)c1ccc2nc(Cc3ccccc3)oc2c1 7.65%, CC(=O)N1CCCc2cc(S(=O)(=O)N3CCC(C(=O)NCc4ccccc4Cl)CC3)ccc21 6.17%, CCC(=O)N1c2ccccc2CC1C(=O)NCCN1CCN(c2cccc(Cl)c2)CC1 (configuration not stated) 3.62%, COCCCNC(=O)CSc1nc(-c2ccc(OC)cc2)[nH]c1-c1ccc(OC)cc1 5.6%, COc1ccc2oc(=O)cc(CN3CCN(c4ccccc4OC)CC3)c2c1 2.27%, CCC1(C)CC(=O)NC1=O (configuration not stated) 20.4%, CCOC(=O)c1cc(S(=O)(=O)NCc2ccc(F)cc2)[nH]n1 5.33%, CC(C)(O)CC(=O)NCCn1ccc2ncnc(Nc3ccc(Oc4cccc(C(F)(F)F)c4)c(Cl)c3)c21 4.95%, CCN(CC)C(=O)c1sc2c(c1C)c(=O)n(-c1ccc(OC)cc1OC)c(=O)n2Cc1cc(C)ccc1C 3.95%, CC(=O)N1c2ccc(S(=O)(=O)NCc3ccc(Cl)cc3)cc2CC1C (configuration not stated) -5.88%, CCc1ccc(CNC(=O)Cn2nc(C)c3c(C)n(-c4ccc(C)cc4)nc3c2=O)cc1 9.36%, CCN(CCCNC(=O)CSc1cc(=O)n(C)c2cc(Cl)ccc12)c1ccccc1 10.8%, CCN(CC)CCCNC(=O)CSc1nc2nc(C)c(Cc3ccccc3C)c(C)n2n1 -10.5%, COc1ccc(NC(=O)Cn2nc(SC)c(S(=O)(=O)c3ccc(C)cc3)c2N)cc1OC 0.319%, COCCN(Cc1ccco1)C(=O)c1cc2c(Cl)nc3ccc(C)cc3c2s1 -5.37%, CCOc1ccc(NC(=O)CC2C(=O)N(c3ccc(F)cc3)C(=O)N2CCc2sccc2C)cc1 (configuration not stated) 0.94%, CCC(=O)N1CCc2cc(Br)cc(S(=O)(=O)CCC(=O)N(C)c3cccc(C)c3)c21 -1.49%, COc1ccc(C2C(=O)N(C3CCC(C)CC3)CC(=O)N2C2CCCCC2)cc1OC (configuration not stated) -1.77%, Fc1ccccc1N1CCN(c2ncnc3c2nc2n3CCCCC2)CC1 9.54%, O=C(O)c1ccc2oc(=O)n(Cc3ccccc3)c2c1 -3.95%, CCOC(=O)c1cc2c(=O)n3ccccc3nc2n(CCCOC)c1=NC(=O)c1c(-c2ccccc2Cl)noc1C 4.08%, Cc1nc2nc(C)c(NS(=O)(=O)c3ccc(F)cc3)c(=O)n2[nH]1 -6.2%, CCOc1ccc(NC(=O)C2CCCN(c3nn4cc(-c5ccc(OC)cc5)nc4s3)C2)cc1 (configuration not stated) 8.7%
